Results: the supplement of paper PMC11880418
Where a name gives a salt, the structure may show the parent alone. The list shows a part of the results. The data scatter; read single values as rough.

Each compound was assayed on T84 (assay: ALDHbr (CSC) cell proportion score relative to DMSO vehicle (ratio to DMSO); breast (SUM159) / gastric (MKN45) / pancreatic (PANC1) / colon cancer lines; ALDHbr cells have high ALDH activity and are rich in cancer stem cells (CSC); higher = more CSC (ALDHbr) cells remaining). Conditions: 10 µM; 72 h.
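Further: High-content imaging of ALDEFLUOR-stained cells with Hoechst-labelled nuclei in 384-well plates, triplicate wells, scored as Z-score against 0.1% DMSO vehicle, negative meaning fewer ALDHbr cells.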

Row | Compound | ALDHbr
1 | CC1=C(/C=C/C(C)=C/C=C/C(C)=C\C(=O)O)C(C)(C)CCC1 [Isotretinoin] | 0.729
2 | CC(C)(C)NC[C@H](O)c1ccc(O)c(CO)c1 [Levalbuterol hydrochloride] | 0.942
3 | CCC[C@@H]1C[C@@H](C(=O)N[C@@H]([C@H]2O[C@H](SC)[C@H](O)[C@@H](O)[C@H]2O)[C@H](C)Cl)N(C)C1 [Clindamycin hydrochloride] | 0.993
4 | C[N+]1(C)CCC(=C(c2ccccc2)c2ccccc2)CC1 [Diphemanil methylsulfate] | 0.866
5 | CC(=O)OC(C)C[N+](C)(C)C (stereo unspecified) [Methacholine chloride] | 0.962
6 | C[n+]1ccccc1/C=N/O [Pralidoxime chloride] | 0.85
7 | CCC(=O)OCC(=O)[C@@]1(OC(=O)CC)[C@@H](C)C[C@H]2[C@@H]3CCC4=CC(=O)C=C[C@]4(C)[C@@]3(Cl)[C@@H](O)C[C@@]21C [Beclomethasone dipropionate] | 1.02
8 | CN1CCc2c(c3ccccc3n2Cc2ccccc2)C1 [Mebhydroline 1,5-naphtalenedisulfonate] | 0.676
9 | Oc1ccc(OCc2ccccc2)cc1 [Monobenzone] | 0.975
10 | NS(=O)(=O)c1cc(C2(O)NC(=O)c3ccccc32)ccc1Cl (stereo unspecified) [Chlorthalidone] | 0.981
11 | N=C(N)NCc1cccc(I)c1 [Iobenguane sulfate] | 1.13
12 | CC(=O)/N=c1/sc(S(N)(=O)=O)nn1C [Methazolamide] | 1.15
13 | C[C@]1(Cn2ccnn2)[C@H](C(=O)O)N2C(=O)C[C@H]2S1(=O)=O [Tazobactam] | 0.859
14 | COc1ccc(C(=O)c2ccccc2O)c(O)c1 [Dioxybenzone] | 0.966
15 | Cc1ncc([N+](=O)[O-])n1CC(O)CCl (stereo unspecified) [Ornidazole] | 1
16 | CCCCNc1ccc(C(=O)OCCOCCOCCOCCOCCOCCOCCOCCOCCOC)cc1 [Benzonatate] | 0.897
17 | Clc1ccccc1CN1CCc2sccc2C1 [Ticlopidine hydrochloride] | 1.06
18 | CN1CCN(c2c(F)cc3c(=O)c(C(=O)O)cn(CCF)c3c2F)CC1 [Fleroxacin] | 0.927
19 | C[C@@H](c1ncncc1F)[C@](O)(Cn1cncn1)c1ccc(F)cc1F [Voriconazole] | 0.985
20 | CC(=O)O[C@H]1C[C@@H]2CC[C@@H]3[C@H](CC[C@@]4(C)[C@H]3C[C@H]([N+]3(C)CCCCC3)[C@@H]4OC(C)=O)[C@@]2(C)C[C@@H]1N1CCCCC1 [Vecuronium bromide] | 0.924
21 | C=CCSCC1Nc2cc(Cl)c(S(N)(=O)=O)cc2S(=O)(=O)N1 (stereo unspecified) [Althiazide] | 1.02
22 | C=C1/C(=C\C=C2/CCC[C@]3(C)[C@@H]([C@H](C)/C=C/[C@@H](O)C4CC4)CC[C@@H]23)C[C@@H](O)C[C@@H]1O [Calcipotriene] | 0.66
23 | CN1CCOC(c2ccccc2)c2ccccc2C1 (stereo unspecified) [Nefopam hydrochloride] | 1.05
24 | Cc1c(N)c(=O)n(-c2ccccc2)n1C [Ampyrone] | 0.795
25 | CC(C)(C)NC(=O)[C@H]1CC[C@H]2[C@@H]3CC[C@H]4NC(=O)C=C[C@]4(C)[C@H]3CC[C@]12C [Finasteride] | 0.864
26 | Cn1c(NCCN(CCO)CCCc2ccc([N+](=O)[O-])cc2)cc(=O)n(C)c1=O [Nifekalant] | 0.932
